Experimental data reported in PMC4336329 (PLoS ONE, 2015).
Out of some 310,000 compounds screened, about 14,000 (4.5%) showed an effect of 50% or more. The effect is printed as a negative number. The list shows a part of the results.

Molecular target: human ether-à-go-go-related gene (hERG) potassium channel (human, UniProt Q12809)
Test: primary screen, population patch clamp on CHO cells stably expressing hERG
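Also: peak tail current of the secondary pulse compared with the same well before compound.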

human ether-à-go-go-related gene (hERG) potassium channel, sequence (Q12809 whole entry, looked up): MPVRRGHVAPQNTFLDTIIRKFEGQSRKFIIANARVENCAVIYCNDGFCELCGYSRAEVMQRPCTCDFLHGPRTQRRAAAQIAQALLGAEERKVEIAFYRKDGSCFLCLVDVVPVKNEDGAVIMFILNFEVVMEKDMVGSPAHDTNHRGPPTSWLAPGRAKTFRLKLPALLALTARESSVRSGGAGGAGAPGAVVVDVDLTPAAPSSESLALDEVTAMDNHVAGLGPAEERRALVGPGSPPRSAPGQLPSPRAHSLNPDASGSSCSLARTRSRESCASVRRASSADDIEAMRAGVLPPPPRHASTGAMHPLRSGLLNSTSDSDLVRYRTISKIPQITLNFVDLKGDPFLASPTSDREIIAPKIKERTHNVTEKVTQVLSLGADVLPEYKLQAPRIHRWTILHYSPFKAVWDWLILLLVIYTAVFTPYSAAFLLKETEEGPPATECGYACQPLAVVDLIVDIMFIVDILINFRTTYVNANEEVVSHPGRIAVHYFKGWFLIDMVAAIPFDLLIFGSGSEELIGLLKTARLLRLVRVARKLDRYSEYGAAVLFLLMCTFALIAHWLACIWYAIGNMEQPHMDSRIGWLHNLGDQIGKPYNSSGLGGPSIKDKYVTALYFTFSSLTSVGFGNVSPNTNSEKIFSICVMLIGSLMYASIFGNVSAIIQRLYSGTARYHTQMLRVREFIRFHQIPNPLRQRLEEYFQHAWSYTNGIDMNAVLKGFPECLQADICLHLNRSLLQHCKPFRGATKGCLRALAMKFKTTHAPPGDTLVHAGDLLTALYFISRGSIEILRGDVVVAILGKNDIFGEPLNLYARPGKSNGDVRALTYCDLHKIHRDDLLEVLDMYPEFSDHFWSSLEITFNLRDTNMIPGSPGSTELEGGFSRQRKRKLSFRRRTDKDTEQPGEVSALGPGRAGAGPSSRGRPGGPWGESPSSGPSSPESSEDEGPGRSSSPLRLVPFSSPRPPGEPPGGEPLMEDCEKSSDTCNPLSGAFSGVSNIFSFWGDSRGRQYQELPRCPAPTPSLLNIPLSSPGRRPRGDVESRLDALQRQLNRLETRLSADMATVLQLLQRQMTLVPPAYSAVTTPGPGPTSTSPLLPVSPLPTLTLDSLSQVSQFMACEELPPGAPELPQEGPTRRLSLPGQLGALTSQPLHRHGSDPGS

SMILES | hERG current change (%, negative = inhibition) at 10uM [%]
COc1ccc2c(c1)CC1(CN2C)C(=O)NC(=O)N(c2ccc(C)cc2)C1=O (stereo not shown) | 14.5
COc1ccc2c(CC(=O)OCC(=O)Nc3cc(C)c(C)cc3[N+](=O)[O-])coc2c1 | 5.69
Cc1oc(-c2cccs2)nc1CN1CCN(CC(C)C)C(CCO)C1 (stereo not shown) | 5.96
COCC(=O)N1CCCc2ccccc21 | 5.29
Cc1ncc([N+](=O)[O-])n1CC(=O)NCCc1ccccc1 | 9.06
COc1ccc(CCN2C(=O)CN=C2Nc2ccc(F)cc2)cc1OC | 15.1
O=C(NCC(=O)N(Cc1cccs1)C(C(=O)NC1CCCC1)c1ccco1)c1cccs1 (stereo not shown) | -1.01
CCN(CC)C(=O)c1sc2nc(-c3ccc(OC)cc3)cn2c1C | -13.2
COc1ccc(C(=O)CCS(=O)(=O)c2ccc(C)cc2)cc1OC | -0.0136
COC(=O)C(O)(c1ccc(NC(=O)c2cccs2)c(C)c1)C(F)(F)F (stereo not shown) | -4.09
Cl.NC(CCCCc1ccccc1)c1cccc2ccccc12 (stereo not shown) | -11.9
Cc1ccc(Cl)cc1N1CCN(S(=O)(=O)c2cnc[nH]2)CC1 | -3.52
NNC(=O)CN1CCCc2ccccc21 | 28.3
COCCNc1nc(-c2ccccc2)nc2c1oc1ccccc12.Cl | -6.3
O=C(c1ccccc1)N(Nc1ccccc1)c1ccccc1 | 1.78
N/C(=N\OC(=O)N1c2ccccc2Sc2ccccc21)c1ccc(Br)cc1 | 5.79
Cc1ccc(C(=O)N2CCCC(c3nc4c(nnn4Cc4ccccc4)c(=O)[nH]3)C2)cc1 (stereo not shown) | -62.4
Cc1cccc(CS(=O)(=O)Cc2ccc(C(=O)NC(C)c3ccccc3)o2)c1 (stereo not shown) | -17.6
O=C(Nc1ccc(N2CCOCC2)cc1)c1nc2ccccc2s1 | -9.87
C/C(=N/NS(=O)(=O)c1ccc(C)cc1)c1c[nH]c2ccccc12 | 10.5
CCCN1C2CCCC1CC(NC(=O)c1ccccc1OC)C2 (stereo not shown) | -3.42
O=C1NC2(CCCCCC2)N=C1c1ccc(F)cc1 | 5.29

SMILES | hERG current change (%, negative = inhibition) at 10uM [%]
N#CC1=C(N)N(c2ccccc2)C(=O)C1 | 11.7
Cc1ccc(S(=O)(=O)Nc2ccc(C(=O)OCC(=O)N(CCC#N)c3ccccc3)cc2)cc1C | -8.85
COCCn1c(COc2ccc(Cl)cc2)nnc1SCC(N)=O | -8.61
COC(=O)c1ccc(=O)n(-c2ccc(OC)cc2)c1 | 14.8
Cc1nn(Cc2ccccc2)c2ncccc12 | 20.7
COc1cccc(CN(C)C(=O)COc2ccc(C(=O)c3ccc(Cl)cc3)cc2)c1OC | -14.1
CCOc1ccc(-n2c(SCC(=O)NCc3ccco3)nnc2-c2c[nH]c3ccccc23)cc1 | -46.3
COc1ccccc1NC(=O)Cn1cnc2sc(C)c(S(=O)(=O)N3CCCCC3)c2c1=O | 14.1
CC(=O)Oc1ccc(C(c2ccc(OC(C)=O)cc2)c2ccccn2)cc1 | 1.2
O=C1C(Cl)=C(N2CCCCCC2)C(=O)N1c1ccccc1Cl | 7.76
O=C(O)CCCn1cc(NC(=O)c2ccc(Br)o2)cn1 | 3.16
O=C(c1ccc2nc[nH]c2c1)N1CCN(c2cccc(Cl)c2)CC1 | -4.43
CCOC(=O)c1cc2sc(C)cc2n1CC(=O)NCc1ccc(F)cc1 | -2.17
CN1CCN(C(=O)CCN2C(=O)c3ccccc3S2(=O)=O)CC1.Cl | 6.77
CC(C(=O)O)n1c(-c2ccn[nH]2)n[nH]c1=S (stereo not shown) | 37.3
Cc1nc(-c2cc(-c3nc(-c4ccc(C(C)(C)C)cc4)no3)no2)cs1 | 17.1
CS(=O)(=O)Nc1ccc(N2CCN(c3ccc(C(F)(F)F)cn3)CC2)nc1 | -4.03
CS(=O)(=O)CC(=O)Nc1ccc2nc3n(c(=O)c2c1)CCCCC3 | 8
Cc1cc(Cl)ccc1C(=O)C1CCCN(C(=O)c2cccnc2C)C1 (stereo not shown) | -37
CC12CC3CC(C)(C1)CC(CN1CCOCC1)(C3)C2.Cl | -0.276
CC(C)C(=O)Nc1nc(-c2ccccc2)ns1 | -14.5
CCOC(=O)C1=NNC2(c3ccc(Cl)cc3)C(=O)N(c3cc(C)cc(C)c3)C(=O)C12 (stereo not shown) | -14.8

SMILES | hERG current change (%, negative = inhibition) at 10uM [%]
CCOc1ccc(N(C(=O)c2ccc3c(c2)OCO3)C2C=CS(=O)(=O)C2)cc1 (stereo not shown) | -24.1
Cc1c(C(=O)N2CCN(C)CC2)oc2ccc(S(=O)(=O)N3CCOCC3)cc12 | 6.09
COC(=O)Nc1ccc(S(=O)(=O)N2CCC(C(=O)NC3CCCCC3)CC2)cc1 | 18.6
CCOc1ccc(N(CC(=O)Nc2ccccc2C(=O)N2CCCC2)S(C)(=O)=O)cc1 | 2.43
Cc1nc2cc(C(F)(F)F)ccc2n1C1CCN(Cc2nnnn2Cc2cccs2)CC1 | -36.6
CCOC(=O)c1cnc2ccc(C)cc2c1Sc1ccc(F)cc1 | -1.1
COc1ccc(NC(=O)CSc2ccc3nnc(CCNC(=O)c4ccccc4)n3n2)cc1 | -16.5
C(=C\c1ccccc1)/CNn1cnnc1 | 11.9
COc1cc(C(=O)COC(=O)Cc2cnc3sccn23)cc(OC)c1OC | 11
CC(=O)Nc1ccc(NC(=O)c2ccco2)cc1 | 4.54
C=CCc1ccc(OCCCCN2CCC(C)CC2)c(OC)c1 | -69.6
COc1ccc(Cl)cc1NC(=O)NC(C)C(C)(C)C (stereo not shown) | 5.53
Cc1ccc(-n2ncc3c(N4CCC5(CC4)OCCO5)ncnc32)c(C)c1 | 14.5
CCOc1cc(/C=C2\C(=N)N3N=C(S(C)(=O)=O)SC3=NC2=O)ccc1OCCOc1cccc(OC)c1 | 13.2
O=C(O)c1cnn2c(C(F)(F)F)cc(-c3ccco3)nc12 | 13.4
COc1cc(NC(=O)c2csc(-c3ccncc3)n2)cc(C(=O)Nc2cccc(C(F)(F)F)c2)c1 | -48.7
COc1ccc(N2CCCCn3c2nc2c3c(=O)n(C)c(=O)n2C)cc1 | -22.1
CCN(Cc1nc(-c2ccc(C)cc2)no1)C(=O)c1ccco1 | 10.6
COc1ccc(N(CC(=O)NCCSCc2ccco2)S(=O)(=O)c2ccccc2)cc1Cl | 1.48
CCn1ncc(/C=N\NC(=O)COc2cc(C)cc(C)c2)c1C | 1.65
CSc1ccccc1C(=O)Nc1cc(C)cc(C)c1 | 2.15
O=c1n(Cc2ccc(Cl)cc2)c2sc3c(c2c2ncnn12)CCCC3 | -39.1

SMILES | hERG current change (%, negative = inhibition) at 10uM [%]
C[C@@]12CCC[C@@](C)(C(=O)O)C1CC[C@@]13C[C@@H](NCc4ccccc4)[C@@](C)(CCC12)C3 (stereo partly shown) | 5.04
O=C(c1ccc(CS(=O)c2ccccc2Cl)o1)N1CCN(c2ccccn2)CC1 (stereo not shown) | -42.5
O=C(c1ccc(Cl)c(S(=O)(=O)N2CCCC2)c1)N1CCCCC1 | 3.08
O=c1[nH]c(-c2ccc3c(c2)OCO3)nc2c1sc(=S)n2-c1ccccc1 | 15.4
CCOc1ccc(NS(=O)(=O)c2cc(NC(=O)c3cccc(C)c3)ccc2Cl)cc1 | 8.35
CC(/C=C/C=C/c1ccccc1)=N/NC(=O)c1ccc2c(c1)OCCO2 | 7.79
Cc1ccc(N(CC(=O)NCC2CCCO2)C(=O)Cn2nnc(-c3cccs3)n2)cc1 (stereo not shown) | -24.9
CC(C)c1nc2scc(-c3ccc(Cl)cc3)c2c(=O)n1N | -16
OCC1(Cc2ccc(Cl)cc2)CCN(Cc2ccc(F)c(F)c2)CC1 | -68.6
O=C1NCCCC1C(=O)N/N=C/c1ccccc1 (stereo not shown) | -4.35
Cl.O=C(CNC1=NCCC1)c1ccc2c(c1)OCCO2 | 3.43
Cc1cc(C)nc(N2CCCC(C(=O)NCC(c3ccccc3)c3ccccc3)C2)n1 (stereo not shown) | -0.251
Cc1c(C(=O)NC2=NCCS2)cccc1[N+](=O)[O-] | 11.4
CCN1C(=O)/C(=C/c2ccc(C)s2)NC1=S | -2.86
CC(C)(C)NC(=O)CN(C(=O)CNC(=O)c1cccs1)c1ccccc1F | 10.2
S=c1[nH]nc(Cc2ccc(Cl)cc2)o1 | 18.1
COC(=O)c1cccc(COC(=O)c2ccc(CS(=O)(=O)c3ccc(C)cc3)cc2)c1 | 2.77
O=C(NC1CCCC1)C(c1ccccn1)N(Cc1ccccc1F)C(=O)c1csnn1 (stereo not shown) | -2.45
Cc1ccc(S(=O)(=O)N(CC(O)CN2C(=O)NC(C)(C)C2=O)c2cccc(C)c2)cc1 (stereo not shown) | 10.4
CCOc1cc(S(=O)(=O)N2CCC(C(N)=O)CC2)ccc1F | -16.4
CCOc1ccc(NC(=S)NCc2nc3ccccc3[nH]2)cc1 | -74
O=C(NCCc1ccc(F)cc1)c1coc(=O)c(Br)c1 | 13
